Test results from the supplement of paper PMC10369915.
The list shows a part of the results. No stated cut-off is given here; in the data, active = 3.2 or more and inactive = the rest. Most of these values are background signal.

Legend:
Assay in all cases: enrichment score (SH2-bound / input frequency) (ratio); bacterial display of known human phosphotyrosine sites (pTyr-Var adds point mutants) read by sequencing; higher = stronger binding; tyrosines were phosphorylated by kinases first
Details in all cases: peptide library: pTyr-Var
SHP2 C-SH2 domain E139D = target: SHP2 C-SH2 domain E139D
[1] = target: SHP2 C-SH2 domain wild-type
SHP2 N-SH2 domain L43F = target: SHP2 N-SH2 domain L43F
SHP2 N-SH2 domain T42A = target: SHP2 N-SH2 domain T42A
SHP2 N-SH2 domain T52S = target: SHP2 N-SH2 domain T52S
[2] = target: SHP2 N-SH2 domain wild-type

Measured: enrichment score
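Further: displayed peptides selected on beads carrying the immobilized SH2 domain, with library peptides lacking any tyrosine serving as negative controls.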

GIMEEYQLPFF [BMPR1A_Y453_V450M_YF]
inactive: SHP2 C-SH2 domain E139D 1.25 | [1] 0.936 | SHP2 N-SH2 domain L43F 1.14 | SHP2 N-SH2 domain T42A 0.758 | SHP2 N-SH2 domain T52S 0.864 | [2] 1.18

YQLPYYNMVPS [BMPR1A_Y458]
active: SHP2 C-SH2 domain E139D 3.5 | [1] 3.63 | SHP2 N-SH2 domain L43F 3.99 | SHP2 N-SH2 domain T42A 5.21 | SHP2 N-SH2 domain T52S 4.68
inactive: [2] 3.09

TSLAQYDSNSK [BMX_Y216]
inactive: SHP2 C-SH2 domain E139D 0.584 | [1] 0.512 | SHP2 N-SH2 domain L43F 0.609 | SHP2 N-SH2 domain T42A 0.564 | SHP2 N-SH2 domain T52S 0.741 | [2] 0.566

TRLAQYDSNSK [BMX_Y216_S212R]
inactive: SHP2 C-SH2 domain E139D 0.623 | [1] 0.713 | SHP2 N-SH2 domain L43F 0.64 | SHP2 N-SH2 domain T42A 0.433 | SHP2 N-SH2 domain T52S 0.641 | [2] 0.614

WVFNHYRCIIW [BRCA2_Y2624_W2626C_YF]
inactive: SHP2 C-SH2 domain E139D 2.24 | [1] 2.93 | SHP2 N-SH2 domain L43F 2.57 | SHP2 N-SH2 domain T42A 2.26 | SHP2 N-SH2 domain T52S 2.68 | [2] 2.02

KPPPTYESEEE [BRD4_Y599]
inactive: SHP2 C-SH2 domain E139D 0.639 | [1] 0.522 | SHP2 N-SH2 domain L43F 0.431 | SHP2 N-SH2 domain T42A 0.344 | SHP2 N-SH2 domain T52S 0.485 | [2] 0.508

KPPPSYESEEE [BRD4_Y599_T598S]
inactive: SHP2 C-SH2 domain E139D 0.36 | [1] 0.521 | SHP2 N-SH2 domain L43F 0.512 | SHP2 N-SH2 domain T42A 0.606 | SHP2 N-SH2 domain T52S 0.361 | [2] 0.728

KKYFSYAWPFY [BRDT_Y291_H288Y]
inactive: SHP2 C-SH2 domain E139D 2.86 | SHP2 N-SH2 domain L43F 2.96 | SHP2 N-SH2 domain T42A 3.03 | [2] 3.02
active: [1] 3.22 | SHP2 N-SH2 domain T52S 3.28

VTSLKYSTSPY [BRIP1_Y916]
inactive: SHP2 C-SH2 domain E139D 0.646 | [1] 0.558 | SHP2 N-SH2 domain L43F 0.654 | SHP2 N-SH2 domain T42A 0.455 | SHP2 N-SH2 domain T52S 0.596 | [2] 0.781

VTSLKYSTSPF [BRIP1_Y916_YF]
inactive: SHP2 C-SH2 domain E139D 0.996 | [1] 0.751 | SHP2 N-SH2 domain L43F 0.788 | SHP2 N-SH2 domain T42A 0.732 | SHP2 N-SH2 domain T52S 0.776 | [2] 0.687

FSTPPYLLEAA [BRIP1_Y921_S919P_YF]
inactive: SHP2 C-SH2 domain E139D 0.848 | [1] 0.826 | SHP2 N-SH2 domain L43F 0.838 | SHP2 N-SH2 domain T42A 0.921 | SHP2 N-SH2 domain T52S 0.853 | [2] 1.03

QLYGPYLRIHA [BSCL2_Y213_A212P]
inactive: SHP2 C-SH2 domain E139D 1.55 | [1] 1.89 | SHP2 N-SH2 domain L43F 2.13 | SHP2 N-SH2 domain T42A 1.95 | SHP2 N-SH2 domain T52S 2.06 | [2] 1.35

QLFGAYLRIHA [BSCL2_Y213_YF]
inactive: SHP2 C-SH2 domain E139D 2.84 | [1] 3.03 | SHP2 N-SH2 domain L43F 2.53 | SHP2 N-SH2 domain T42A 2.17 | SHP2 N-SH2 domain T52S 2.4 | [2] 2.48

STSYDYCRVPM [BST2_Y8]
inactive: SHP2 C-SH2 domain E139D 0.78 | [1] 0.685 | SHP2 N-SH2 domain L43F 0.66 | SHP2 N-SH2 domain T42A 0.6 | SHP2 N-SH2 domain T52S 0.497 | [2] 1.03

GVIRHYVVCST [BTK_Y334]
inactive: SHP2 C-SH2 domain E139D 0.821 | [1] 0.764 | SHP2 N-SH2 domain L43F 0.744 | SHP2 N-SH2 domain T42A 0.766 | SHP2 N-SH2 domain T52S 0.803 | [2] 0.892

PELINYHQPNS [BTK_Y361_H364P]
inactive: SHP2 C-SH2 domain E139D 0.554 | [1] 0.565 | SHP2 N-SH2 domain L43F 0.769 | SHP2 N-SH2 domain T42A 0.654 | SHP2 N-SH2 domain T52S 0.519 | [2] 0.858

PEFINYHQHNS [BTK_Y361_L358F]
inactive: SHP2 C-SH2 domain E139D 1.27 | [1] 0.806 | SHP2 N-SH2 domain L43F 1.13 | SHP2 N-SH2 domain T42A 0.658 | SHP2 N-SH2 domain T52S 0.801 | [2] 0.807

HKLSSYEYDFE [BTK_Y40_Y39S]
inactive: SHP2 C-SH2 domain E139D 0.54 | [1] 0.528 | SHP2 N-SH2 domain L43F 0.39 | SHP2 N-SH2 domain T42A 0.378 | SHP2 N-SH2 domain T52S 0.5 | [2] 0.707

HKLSYNEYDFE [BTK_Y40_Y40N]
inactive: SHP2 C-SH2 domain E139D 0.858 | [1] 0.667 | SHP2 N-SH2 domain L43F 0.527 | SHP2 N-SH2 domain T42A 0.601 | SHP2 N-SH2 domain T52S 0.767 | [2] 0.565

YEAMEYLESKQ [BTK_Y511_C506Y]
inactive: SHP2 C-SH2 domain E139D 0.781 | [1] 0.884 | SHP2 N-SH2 domain L43F 0.701 | SHP2 N-SH2 domain T42A 1.07 | SHP2 N-SH2 domain T52S 0.639 | [2] 0.737

FEAMEYLESKQ [BTK_Y511_C506Y_YF]
inactive: SHP2 C-SH2 domain E139D 0.81 | [1] 0.958 | SHP2 N-SH2 domain L43F 0.829 | SHP2 N-SH2 domain T42A 0.622 | SHP2 N-SH2 domain T52S 0.876 | [2] 1.03

CEAMEYPESKQ [BTK_Y511_L512P]
inactive: SHP2 C-SH2 domain E139D 0.839 | [1] 0.833 | SHP2 N-SH2 domain L43F 0.885 | SHP2 N-SH2 domain T42A 0.775 | SHP2 N-SH2 domain T52S 0.672 | [2] 0.975

CEAMEYQESKQ [BTK_Y511_L512Q]
inactive: SHP2 C-SH2 domain E139D 0.695 | [1] 0.892 | SHP2 N-SH2 domain L43F 0.904 | SHP2 N-SH2 domain T42A 0.622 | SHP2 N-SH2 domain T52S 0.57 | [2] 1.32

QGLRLYRSHLA [BTK_Y617_P619S]
inactive: SHP2 C-SH2 domain E139D 1.4 | [1] 1.15 | SHP2 N-SH2 domain L43F 1.14 | SHP2 N-SH2 domain T42A 1.41 | SHP2 N-SH2 domain T52S 1.04 | [2] 1.04

MQMEEYRGWVE [BTNL2_Y91]
inactive: SHP2 C-SH2 domain E139D 0.846 | [1] 0.685 | SHP2 N-SH2 domain L43F 0.889 | SHP2 N-SH2 domain T42A 0.876 | SHP2 N-SH2 domain T52S 0.73 | [2] 0.776

GDKENYGLPQP [BUB1_Y538_N534D]
inactive: SHP2 C-SH2 domain E139D 0.489 | [1] 0.49 | SHP2 N-SH2 domain L43F 0.468 | SHP2 N-SH2 domain T42A 0.415 | SHP2 N-SH2 domain T52S 0.437 | [2] 0.532

VLDCHYPEDEV [C1QBP_Y188]
inactive: SHP2 C-SH2 domain E139D 0.745 | [1] 0.641 | SHP2 N-SH2 domain L43F 0.692 | SHP2 N-SH2 domain T42A 0.705 | SHP2 N-SH2 domain T52S 1.06 | [2] 0.761

VLDSHYPEDEV [C1QBP_Y188_C186S]
inactive: SHP2 C-SH2 domain E139D 0.609 | [1] 0.636 | SHP2 N-SH2 domain L43F 0.604 | SHP2 N-SH2 domain T42A 0.646 | SHP2 N-SH2 domain T52S 0.599 | [2] 0.635

PGVDRYSLGTS [C5orf42_Y1451]
inactive: SHP2 C-SH2 domain E139D 0.609 | [1] 0.604 | SHP2 N-SH2 domain L43F 0.457 | SHP2 N-SH2 domain T42A 0.489 | SHP2 N-SH2 domain T52S 0.641 | [2] 0.453

GNHVSYYQSDG [CACNA1C_Y1757]
inactive: SHP2 C-SH2 domain E139D 0.572 | [1] 0.525 | SHP2 N-SH2 domain L43F 0.52 | SHP2 N-SH2 domain T42A 0.593 | SHP2 N-SH2 domain T52S 0.672 | [2] 0.562

PRPAGYPSTVS [CACNA1C_Y1832]
inactive: SHP2 C-SH2 domain E139D 0.697 | [1] 0.583 | SHP2 N-SH2 domain L43F 0.671 | SHP2 N-SH2 domain T42A 0.608 | SHP2 N-SH2 domain T52S 0.655 | [2] 0.785

VHFLVYHHHHH [CACNA1H_Y519_H516Y_YF]
inactive: SHP2 N-SH2 domain L43F 3.03 | SHP2 N-SH2 domain T42A 2.83 | SHP2 N-SH2 domain T52S 2.96
active: SHP2 C-SH2 domain E139D 3.55 | [1] 3.21 | [2] 3.53

EPSVDCCVVKI [CAD_Y735_Y735C]
inactive: SHP2 C-SH2 domain E139D 0.662 | [1] 0.706 | SHP2 N-SH2 domain L43F 0.715 | SHP2 N-SH2 domain T42A 0.597 | SHP2 N-SH2 domain T52S 0.778 | [2] 0.624

FNSLPYQVPTS [CALCOCO2_Y358]
inactive: SHP2 C-SH2 domain E139D 0.963 | [1] 0.679 | SHP2 N-SH2 domain L43F 0.676 | SHP2 N-SH2 domain T42A 0.801 | SHP2 N-SH2 domain T52S 0.606 | [2] 0.688

DGQVNYEGFVQ [CALM1_Y139_E141G]
inactive: SHP2 C-SH2 domain E139D 0.822 | [1] 0.576 | SHP2 N-SH2 domain L43F 0.721 | SHP2 N-SH2 domain T42A 1.15 | SHP2 N-SH2 domain T52S 0.862 | [2] 0.846

CPSLLYSPVSS [CAMKK2_Y128_P127L]
inactive: SHP2 C-SH2 domain E139D 1.02 | [1] 1.18 | SHP2 N-SH2 domain L43F 0.925 | SHP2 N-SH2 domain T42A 0.943 | SHP2 N-SH2 domain T52S 0.89 | [2] 1.2

VVKLTYNENDN [CAMKK2_Y183_A182T]
inactive: SHP2 C-SH2 domain E139D 1.15 | [1] 0.923 | SHP2 N-SH2 domain L43F 0.779 | SHP2 N-SH2 domain T42A 0.855 | SHP2 N-SH2 domain T52S 0.864 | [2] 1.02
